# In all, about 33,000 sequences were measured (“E-score (-0.5 to 0.5)”: median about -0.04, highest 2% from about 0.36 on). This is one part of the list.
# Target: T1, Hmlalpha2 (UniProt P0CY09)
# T1 sequence: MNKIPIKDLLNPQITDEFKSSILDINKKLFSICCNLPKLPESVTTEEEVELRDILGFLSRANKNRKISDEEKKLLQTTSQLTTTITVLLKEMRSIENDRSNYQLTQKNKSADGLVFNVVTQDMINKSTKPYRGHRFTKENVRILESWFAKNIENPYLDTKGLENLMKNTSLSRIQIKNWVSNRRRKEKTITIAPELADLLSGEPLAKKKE
# Test: PBM E-score (8-mer binding enrichment) (E-score (-0.5 to 0.5)); higher = stronger / more preferred TF binding; most listed sequences are background and not binding sites
# Conditions: protein concentration: 200 nM; construct: GST-full length
# Protocol: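 Universal 'all 10-mer' protein binding microarrays (Agilent AMADID 015681) probed with GST-tagged S. cerevisiae TFs (full-length or DBD) made by in vitro transcription/translation (PURExpress), about 100-200 nM. Bound TF was detected with fluorescent anti-GST. Each ungapped 8-mer (which stands for itself and its reverse complement) is scored by the PBM enrichment score (E-score), a modified Wilcoxon-Mann-Whitney statistic from -0.5 to +0.5, computed with the Universal PBM Analysis Suite. Scale: above 0.35 generally sequence-specific binding.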
row,Sequence,PBM E-score
1,GCTATCCA,-0.231
2,ATGTGGTA,0.143
3,CGTTAGAG,-0.0906
4,GCGAGAGA,-0.24
5,ACTGATCT,0.139
6,ACCTCCAC,-0.173
7,GAGGACAC,-0.104
8,ATCGGGTC,-0.154
9,CAGCACTC,-0.0774
10,ATTCTTAA,0.148
11,CCGGGAAC,-0.219
12,CCCTTGCC,-0.285
13,GCGACACC,-0.121
14,GATTTTGC,-0.0953
15,CCACCGGC,-0.34
16,CATCGCCG,-0.0581
17,ACCCCTTC,-0.156
18,CGTCTTTA,0.0759
19,GATTTAAA,0.0171
20,CGTCTTGC,-0.101
21,GCTTGTTA,0.286
22,GCCCTTTA,-0.0469
23,ACCACCAT,-0.144
24,AATAAGCT,0.131
25,GCTATAGC,-0.344

row,Sequence,PBM E-score
1,AAGCTAGG,-0.186
2,CAGCAATA,0.0445
3,CCCCAGTC,-0.309
4,GGCCGATA,-0.0544
5,ATCAAGAT,-0.0259
6,AGGGCTTC,-0.0279
7,ACAAGGGG,0.152
8,TACTTTAA,0.208
9,ATGGCTTA,-0.0612
10,TTCACGAA,0.019
11,ACCTATCG,-0.0298
12,CATTCCGG,-0.182
13,CCAATATA,-0.0161
14,CAGGCCCC,-0.311
15,GCCATTAC,0.145
16,AGCATAGG,-0.178
17,ATAGTCGA,0.0472
18,CGGATATC,-0.0199
19,ACACTAGA,0.0859
20,CCCATGCA,0.132
21,TCTATAAA,0.116
22,CATCTTAC,0.0513
23,ACAACTAT,0.173
24,ATTGATGA,-0.0591
25,CGGCCCAA,-0.356

row,Sequence,PBM E-score
1,CGGAACCA,-0.0561
2,GACTAGCC,-0.315
3,TTAGTAAA,0.319
4,ACCGCGAG,-0.0948
5,ACGATGGA,0.039
6,AGATGCCG,-0.21
7,AAGTAGGC,-0.0798
8,AGGGGATG,-0.188
9,ACCCACAT,-0.0281
10,CCACAAAG,-0.112
11,CCGAATAA,0.0885
12,ACAGAAGA,0.073
13,GTACGCTA,-0.0324
14,ACGGTGTG,0.00286
15,ACATTTTG,0.14
16,TCCTCAGA,-0.213
17,CGCGCAAG,0.097
18,CAACAACC,0.163
19,CGAGCCAC,-0.213
20,CCTCTGAC,-0.189
21,AAGATCAT,0.195
22,CTAAGTTA,0.158
23,CCGCTGCA,-0.126
24,ATCAGGAA,-0.245
25,ATAGACGC,0.197

row,Sequence,PBM E-score
1,CTGTGACA,0.0176
2,AACAGAGC,0.00102
3,CTGCGAAG,-0.144
4,AACATCTG,0.128
5,GGCACCCC,-0.207
6,AGCCGAGA,-0.251
7,AGACACGG,0.228
8,CTGTCTTA,0.0838
9,CGACTAGC,-0.121
10,ATGCCCCA,-0.366
11,CAAGGAGG,-0.0485
12,TCGGGAGA,-0.175
13,AATCTTCT,-0.0364
14,AGAATCCG,-0.106
15,GAGCGTGC,-0.0403
16,ATATTTGC,0.121
17,AGCAGATC,0.109
18,ATCGCAGG,-0.0866
19,GGATGTAA,0.397
20,ATTGAGAC,-0.0756
21,CACTTTAG,-0.227
22,GGATTCTA,-0.0376
23,ATCTGTTC,-0.117
24,CTCGTAGC,-0.173
25,CGGGCGAG,-0.184

row,Sequence,PBM E-score
1,ATCGCCTG,-0.156
2,AAATAACG,0.231
3,GCAGAGGC,-0.201
4,AGACGCAA,-0.0532
5,GGGCAGAA,0.0375
6,CCCTTACG,-0.0873
7,CGTCTTAC,-0.0226
8,CCGAAATC,-0.113
9,CATATCTA,0.0761
10,TGTGCAAA,0.223
11,AGCGGGTA,0.0406
12,GGCTCAAC,-0.0255
13,CATGCCCC,-0.0941
14,TGTTGGAA,0.256
15,AACACGCA,0.412
16,CGTCTCCC,-0.229
17,GCATGCGC,0.0917
18,AGACTTGA,0.0747
19,AGTACAAT,0.25
20,ACTACAGC,-0.0472
21,CTGTCCAC,-0.0348
22,CCACGAGG,-0.0969
23,AAATATAA,0.225
24,AAACTGTA,0.241
25,GGTGGGGA,-0.0925

row,Sequence,PBM E-score
1,ACAATTTG,0.0868
2,AGTGTAAT,0.357
3,AAACGGCG,-0.106
4,CACTAAAC,0.161
5,CCGGGCGA,-0.0675
6,AGCGTCGC,-0.0785
7,AAACCGAG,-0.204
8,ATGACACG,0.404
9,AAGCAGGG,-0.116
10,GCATAATA,0.223
11,AGGACGGA,-0.372
12,AGGGCAAA,-0.106
13,GCTGCAAC,-0.139
14,GCGCAAAC,-0.0215
15,ATGTGTTC,0.233
16,AGCGAGGA,-0.159
17,CATACGGA,-0.1
18,CATGAAAG,0.00206
19,CCGGGCGC,-0.371
20,CACATGAG,0.0365
21,ATGCCCGC,-0.223
22,CGAGCGCA,0.0619
23,CAACTACC,-0.0448
24,ACTTAAAC,0.167
25,TAGACGCA,0.0971

row,Sequence,PBM E-score
1,GCCAGCAC,-0.176
2,TCGACGAA,0.0363
3,CGCACCCG,-0.0297
4,TCCGGAAA,-0.0989
5,GTTAGGAA,0.0561
6,CAGCAAAC,0.0641
7,CCCTACTA,-0.0755
8,GATATGTA,0.345
9,TTAGCGAA,0.0147
10,CATTGAAG,0.0316
11,CGGCTCGC,-0.0476
12,ACTTTTAT,-0.0402
13,TAGCGTGA,-0.0325
14,TGGGTACA,0.0761
15,AATAAGAT,0.147
16,GGGTAATA,0.193
17,ATCATTTG,-0.0104
18,CGATACGA,-0.112
19,ACAAGCAT,0.247
20,GAAGTAGA,-0.0167
21,ATGCTGAC,0.113
22,TAAACGGA,0.0215
